Test results from PubChem BioAssay AID504937 (National Center for Advancing Translational Sciences (NCATS), 2011).
In all, about 340,000 compounds went through this assay and about 20 (0.006%) were called active. Inconclusive means that the source gave no clear call. Such entries were picked first, then a sample of the others. Calls come from the whole dose curve; as a rule, active = well fitted inhibition curve with a large enough effect; inconclusive = small, poorly fitted or top-dose-only effect; inactive = no such curve, though single readings can be large or run the other way. A potency beside an inconclusive call is a rough fit, not a confirmed value.

target: Sphingomyelin phosphodiesterase (Homo sapiens) (UniProt P17405); assay: Inhibitors of Secretory Acid Sphingomyelinase (S-ASM): qHTS; conditions: placental ASM, HMU-PC fluorogenic substrate (series up to 57.5 µM), 60 min; activity change, negative = inhibition: at the top concentration
UniProt P17405, sequence (P17405 whole entry, looked up): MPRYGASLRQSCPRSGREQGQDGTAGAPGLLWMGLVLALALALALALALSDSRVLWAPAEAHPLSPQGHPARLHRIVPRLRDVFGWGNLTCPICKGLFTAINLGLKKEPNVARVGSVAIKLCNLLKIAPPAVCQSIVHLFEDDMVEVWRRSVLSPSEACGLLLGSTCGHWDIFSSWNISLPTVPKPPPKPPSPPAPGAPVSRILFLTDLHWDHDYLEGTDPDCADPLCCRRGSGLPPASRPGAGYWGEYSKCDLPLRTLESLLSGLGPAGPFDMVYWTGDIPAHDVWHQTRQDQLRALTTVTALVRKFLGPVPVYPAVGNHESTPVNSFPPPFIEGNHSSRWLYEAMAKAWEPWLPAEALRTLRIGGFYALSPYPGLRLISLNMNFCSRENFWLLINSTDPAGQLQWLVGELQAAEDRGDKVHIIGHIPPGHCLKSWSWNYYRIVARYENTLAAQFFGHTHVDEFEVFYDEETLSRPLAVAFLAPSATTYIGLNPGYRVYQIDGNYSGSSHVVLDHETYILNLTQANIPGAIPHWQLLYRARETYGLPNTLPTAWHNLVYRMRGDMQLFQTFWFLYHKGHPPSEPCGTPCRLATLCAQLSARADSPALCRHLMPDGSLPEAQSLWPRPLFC
How it was run: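 Fluorescence read-out (Ex 386 nm, Em 447 nm) after stopping the reaction at pH 10. Enzyme: ASM from human placenta; substrate HMU-PC0, 9 uM final; 60 min, 37 °C. Compound preincubation 10 min, ambient temperature.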
Potency is the fitted concentration of half-maximal effect; tags give direction and shape of the fitted curve.

| Structure (SMILES) | Potency | activity change, negative = inhibition |
| --- | --- | --- |
| CCc1nnc(NS(=O)(=O)c2ccc(N=Cc3c(C)[nH]n(-c4ccc(C)cc4)c3=O)cc2)s1 | inconclusive: 89.1 µM [inhibitor, partial curve, poor fit] | – |
| COc1ccc(-n2c(Cc3cccn3C)nnc2SCC(=O)Nc2ccc(C)c(Cl)c2)cc1 | inconclusive: 251 µM [inhibitor, partial curve, poor fit] | – |
| C[C@H](CO)N1C[C@H](C)[C@@H](CN(C)S(=O)(=O)c2ccccc2)Oc2c(NC(=O)Nc3ccc(C(F)(F)F)cc3)cccc2C1=O | inconclusive: 70.8 µM [inhibitor, single point] | – |
| CC1=NOC(=O)/C1=C/c1ccc2c(c1)OCO2 | – | inactive: 2.92% |
| CCCc1cc(=O)oc2c3c(cc(OCC(=O)NCc4ccncc4)c12)OC(C)(C)CC3 | – | inactive: 15.2% |
| O=C(Cc1ccc(Br)cc1)NC1CCCc2ccccc21 (configuration not stated) | – | inactive: 0.4% |
| CCOC(=O)C1(CCOc2ccccc2)CCN(Cc2ccc(OC)cc2)CC1 | – | inactive: -11.1% |
| CCOC(=O)c1c(NC(=O)COC(=O)Cn2cnc3ccccc32)sc2c1CCC(C)C2 (configuration not stated) | inconclusive: 56.2 µM [inhibitor, partial curve, poor fit] | – |
| CC1CCN(c2ccccc2NC(=O)c2ccc(Br)o2)CC1 | inconclusive: 447 µM [inhibitor, partial curve, poor fit] | – |
| Cc1ccc(Cl)cc1N1CCN(S(=O)(=O)c2cc3c(cc2C)NC(=O)CO3)CC1 | inconclusive: 112 µM [inhibitor, partial curve, poor fit] | – |
| C=CCOc1nc2c(c(=O)n(C)c(=O)n2C)n1Cc1ccc(Cl)cc1 | – | inactive: -3.84% |
| CCCCNc1nc(Nc2ccc(C)c(Cl)c2)c2cnn(C)c2n1 | inconclusive: 79.4 µM [inhibitor, single point] | – |
| COc1ccc2cc(C3CC(c4ccco4)=NN3S(C)(=O)=O)c(Cl)nc2c1 (configuration not stated) | – | inactive: 1.15% |
| Cc1ccc(C(=O)N/C(=C\c2ccc(Cl)cc2)C(=O)NCCCN2CCOCC2)cc1 | – | inactive: -0.291% |
| CC(=NCCc1c(C)[nH]c2ccc(OC(F)(F)F)cc12)C1=C(O)CC(c2ccccc2)CC1=O (configuration not stated) | inconclusive: 112 µM [inhibitor, partial curve, poor fit] | – |
| O=C1/C(=C/C=C/c2ccco2)SC(=S)N1c1ccc(O)cc1 | inconclusive: 112 µM [inhibitor, partial curve, poor fit] | – |
| CC(C)C[C@H](NC(=O)c1[nH]cnc1C(=O)N[C@@H](C)c1ccccc1)C(=O)OCc1ccccc1 | inconclusive: 1000 µM [inhibitor, partial curve, poor fit] | – |
| O=C(NC(C(=O)N/N=C/c1cc([N+](=O)[O-])ccc1O)c1n[nH]c(=O)c2ccccc12)c1ccccc1 (configuration not stated) | inconclusive: 56.2 µM [inhibitor, partial curve, poor fit] | – |
| Cc1nn(-c2ccccc2)c(C)c1/C=N/n1c(-c2ccccc2Br)n[nH]c1=S | inconclusive: 2510 µM [inhibitor, partial curve, poor fit] | – |
| COc1ccc(N2CCN(c3ncnc4scc(-c5ccc(C)cc5)c34)CC2)cc1 | inconclusive: 316 µM [inhibitor, partial curve, poor fit] | – |
| CCCCCCCCCCOC(=O)Cn1c(COc2ccc(Cl)cc2)[n+](C)c2ccccc21 | inconclusive: 56.2 µM [inhibitor, single point] | – |

| Structure (SMILES) | Potency | activity change, negative = inhibition |
| --- | --- | --- |
| Cc1cccc(Nc2c([N+](=O)[O-])cc(C(=O)N3CC(=O)Nc4ccccc43)cc2[N+](=O)[O-])c1 | inconclusive: 126 µM [inhibitor, partial curve, poor fit] | – |
| CSc1cccc(CN2CCCC(CO)(Cc3cccc(Cl)c3)C2)c1 (configuration not stated) | – | inactive: -0.706% |
| CC1(c2ccc(Cl)c(Cl)c2)NC(=S)N2C1NC(=S)N2c1ccccc1 (configuration not stated) | inconclusive: 89.1 µM [inhibitor, single point] | – |
| CCC(=C(c1ccc(OC)cc1)c1ccc(OC)cc1)c1cn(CC(O)CN(CCO)CCO)c2ccccc12 (configuration not stated) | inconclusive: 89.1 µM [inhibitor, single point] | – |
| CCOC(=O)C1=C(C)NC(C)=C(C(=O)OCCNC(=O)c2cccnc2)C1c1cccc([N+](=O)[O-])c1 (configuration not stated) | inconclusive: 44.7 µM [inhibitor, single point] | – |
| O=C(CN1CCCC1)Nc1c(Cl)cccc1Cl | – | inactive: -1.41% |
| CCOC(=O)C1=C(C)NC2=C(C(=O)c3ccccc32)C1c1cccc2ccccc12 (configuration not stated) | inconclusive: 100 µM [inhibitor, single point] | – |
| CCN(CC#CCC(O)(c1ccccc1)c1ccccc1)C(C)C | – | inactive: 5.05% |
| COc1ccccc1N1N=C(C(=O)c2ccccc2)C2C(=O)N(c3ccc(Br)cc3)C(=O)C21 (configuration not stated) | inconclusive: 891 µM [inhibitor, partial curve, poor fit] | – |
| COc1ccc2c(-c3ccc(OCCN4CCOCC4)cc3)c(-c3ccccc3OC)sc2c1 | inconclusive: 70.8 µM [inhibitor, partial curve, poor fit] | – |
| COc1cc(C[C@@H](C)[C@@H](C)Cc2ccc(O)c(OC)c2)ccc1O | inconclusive: 112 µM [inhibitor, partial curve, poor fit] | – |
| CC(C)(C)[C@H](N)C(=O)N[C@H]1CCC2C3CC=C4C[C@@H](O)CC[C@]4(C)C3CC[C@@]21C (some centres not stated) | – | inactive: -3.04% |
| NS(=O)(=O)c1ccc(Nc2nc(-c3cccc([N+](=O)[O-])c3)cs2)cc1 | inconclusive: 89.1 µM [inhibitor, partial curve, poor fit] | – |
| CCOC(=O)N1CCc2c(sc(NC(=O)CN(CC)CC)c2C#N)C1 | – | inactive: -0.83% |
| Cn1nc(C(=O)OCc2ccc(Br)cc2F)c2ccccc2c1=O | inconclusive: 251 µM [inhibitor, partial curve, poor fit] | – |
| CCCCCCCNC(=O)C1(CC2CC(c3cccc(Br)c3)=NO2)CCN(C(=O)C2(C)CC2)CC1 (configuration not stated) | inconclusive: 126 µM [inhibitor, partial curve, poor fit] | – |
| CCc1ccc(NC(=O)NCC2CCN(Cc3cccc(Cl)c3)CC2)cc1 | – | inactive: -0.855% |
| Cc1c(/C=N\NC(=O)C2COc3ccccc3O2)c2ccccc2n1C (configuration not stated) | inconclusive: 112 µM [inhibitor, partial curve, poor fit] | – |
| COc1ccc(CCNC(=O)C2CC(=O)N(C3CCCCC3)C2)cc1OC (configuration not stated) | – | inactive: 3.57% |
| O=C(/C=C/c1ccc(OC(F)F)cc1)Nc1cccc(S(=O)(=O)N2CCOCC2)c1 | inconclusive: 112 µM [inhibitor, partial curve] | – |
| O=C(COc1ccc2c(c1)oc(=O)c1ccccc12)NC(Cc1ccc(Cl)cc1)C(=O)O (configuration not stated) | inconclusive: 200 µM [inhibitor, partial curve, poor fit] | – |

| Structure (SMILES) | Potency | activity change, negative = inhibition |
| --- | --- | --- |
| CCOC(=O)c1c(-c2cccs2)csc1NC(=O)CN1CC(C)OC(C)C1 (configuration not stated) | inconclusive: 224 µM [inhibitor, partial curve, poor fit] | – |
| O=C(CC1SC(=Nc2ccc(OC(F)F)cc2)N(CCC2=CCCCC2)C1=O)Nc1ccccc1F (configuration not stated) | inconclusive: 70.8 µM [inhibitor, partial curve, poor fit] | – |
| Cn1c(NCc2ccccc2)nc2c1c(=O)n(Cc1ccc(Br)cc1)c(=O)n2C | inconclusive: 89.1 µM [inhibitor, single point] | – |
| CC(C)Cc1ccc(C(C)C(=O)OCC(=O)c2c[nH]c3ccccc23)cc1 (configuration not stated) | inconclusive: 89.1 µM [inhibitor, single point] | – |
| COc1cc(C2c3c(-c4ccccc4)n[nH]c3C(=O)N2c2ccccc2)ccc1O (configuration not stated) | inconclusive: 316 µM [inhibitor, partial curve, poor fit] | – |
| CCOC(=O)/C=C/C(=O)Nc1cc(S(=O)(=O)Nc2ccc(OC)cc2)ccc1N1CCOCC1 | – | inactive: -3.72% |
| O=C(NCc1ccco1)C12CC3CC(CC(C3)C1)C2 | – | inactive: 2.91% |
| COc1cc(C(=O)Nc2cccc(-c3nc4cc(C)cc(C)c4o3)c2)cc(OC)c1OC | inconclusive: 89.1 µM [inhibitor, partial curve, poor fit] | – |
| COc1ccc(S(=O)(=O)NC2CCCCC2)cc1C | – | inactive: 2.98% |
| CCOC(=O)c1ccc(N2CCOCC2)c(NS(=O)(=O)c2ccc(F)cc2)c1 | – | inactive: -1.73% |
| CN1/C(=C\C(=O)Nc2cccc(Cl)c2)C(C)(C)c2ccccc21 | inconclusive: 100 µM [inhibitor, partial curve, poor fit] | – |
| COc1cc(/C=C2/C(=O)N(c3ccc(Br)cc3)N=C2C)cc(OC)c1OC | inconclusive: 89.1 µM [inhibitor, single point] | – |
| CC(NS(=O)(=O)c1cccc(Cl)c1)C(=O)Nc1ccc(-c2nc3ccccc3s2)cc1 (configuration not stated) | inconclusive: 251 µM [inhibitor, partial curve, poor fit] | – |
| COc1cccc(Nc2nc(N)c([N+](=O)[O-])c(NCc3ccco3)n2)c1 | inconclusive: 79.4 µM [inhibitor, single point] | – |
| COc1cccc(NC(=O)C2CC(=O)N(C)C(=Nc3cccc(F)c3)S2)c1 (configuration not stated) | inconclusive: 70.8 µM [inhibitor, partial curve, poor fit] | – |
| O=C(N/N=C1\CCCc2c1[nH]c1ccc(Cl)cc21)c1ccncc1 | inconclusive: 1260 µM [inhibitor, partial curve, poor fit] | – |
| Nc1[nH]c2cc([N+](=O)[O-])ccc2c1-c1ccccn1 | – | inactive: -17.6% |
| COC(=O)c1cc(S(=O)(=O)N2CCN(Cc3ccccc3)CC2)c[nH]1 | – | inactive: -0.486% |
| Cc1ccccc1N/N=C/c1ccc(C#N)cc1 | inconclusive: 200 µM [inhibitor, partial curve, poor fit] | – |
| CCN(C(=O)CSc1nnc(-c2ccncc2)n1Cc1ccccc1)C1CCS(=O)(=O)C1 (configuration not stated) | – | inactive: 9.32% |
